# Reference: PubChem BioAssay AID588334 (Broad Institute, 2011)
# The campaign covered roughly 300,000 compounds. About 2,300 (0.77%) were called active. This list was built around the results that the source calls inconclusive (neither active nor inactive); the mix of calls is not that of the screen.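 Rule for the calls: active = mean activation of at least 80% with every replicate also reaching 80%; inconclusive = mean reaches 80% but some replicate falls short; inactive = the rest.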
# Test: MITF-driven TRPM1 luciferase induction in melanoma cells – cell-based, SK-MEL-5, single point, primary screen (AID 588334);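 note: 0% = neutral control wells and 100% = parthenolide positive control wells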
# Settings: SK-MEL-5 TRPM1-promoter luciferase, 24 h; at 12.5 µM; hits give high values; % of positive control, neutral wells = 0
row,Structure (SMILES),activation
1,Cc1ccc(C(=O)N=c2sccn2C)cc1S(=O)(=O)N1CCOCC1,active: 99.4%
2,Cc1ccsc1C(=O)OCc1nnc(-c2ccccc2)o1,active: 95.9%
3,N#CC(C#N)=C1NC(N)=C(C#N)C(c2ccccc2)=C1C#N,inactive: -29.7%
4,CCOC(=O)c1ccc(-c2nnc(-c3ccc(Cl)cc3Cl)o2)cc1,active: 87.4%
5,O=C(OCC(=O)N1CCc2ccccc2C1)c1c(F)cccc1Cl,active: 115%
6,CCSCc1nnc(SCC(=O)c2ccc(OC)cc2)n1C,inactive: -12.7%
7,CCOc1ccc(N(CC(=O)NC2CCCC2)S(=O)(=O)c2ccccc2)cc1,inactive: 2.39%
8,CC(C)(C)c1ccc(-c2cc(C(=O)NNC(=O)Nc3ccccc3)c3ccccc3n2)cc1,inconclusive: 86.4%
9,Cc1cccc(NC(=O)c2ccc(N3CCCCC3)c([N+](=O)[O-])c2)n1,inconclusive: 80.8%
10,CCC1CCC(NC(=O)Nc2cccc(OC)c2)CC1 (stereo not drawn),inconclusive: 80.6%
11,COc1ccc(/C=C/C(=O)NC2CCCCCCC2)cc1S(=O)(=O)N1CCOCC1,inactive: 29.9%
12,COc1ccc2nc(Nc3ccccc3)sc2c1,active: 94.7%
13,COc1ccc(/C=C/C(=O)NC(=S)NNC(=O)c2c(-c3ccccc3)noc2C)cc1,inactive: -6.15%
14,COc1cc(/C=C2\SC(=S)N(NC(=O)c3ccncc3)C2=O)ccc1O,inactive: 2.55%
15,COc1ccc(-c2nc(-c3ccc(Br)cc3)no2)c(OC)c1,inconclusive: 80%
16,O=C(Nc1ccccc1)c1ccc(-c2ccccc2Cl)o1,active: 89.3%
17,O=C(NC1CCCCC1)c1cc(-c2ccccc2O)on1,active: 124%
18,O=C(NCCc1ccccc1)c1ccc(Br)o1,inconclusive: 81.4%
19,COc1ccc(OCc2cc(C(=O)N(C)Cc3cc(C4CC4)n[nH]3)no2)c(Cl)c1,active: 90.3%
20,Cc1nc2ccc(NC(=O)c3ccc(Cl)s3)cc2s1,active: 87.1%
21,O=C(Nc1cccc(-c2ccc(N3CCOCC3)nn2)c1)c1ccccc1Cl,active: 107%
22,COc1cccc2cc(C(=O)NCc3ccccc3Cl)c(=O)oc12,inconclusive: 81.9%
23,O=C(N/N=C/c1ccc(Br)s1)c1ccco1,inconclusive: 80.3%
24,CCOC(=O)CC1COCCN1C(=O)c1ccc2oc(Cc3ccccc3)nc2c1 (stereo not drawn),inconclusive: 81.3%
25,O=C(CCCOc1ccccc1)Nc1nc2ccccc2[nH]1,inconclusive: 80.3%

row,Structure (SMILES),activation
1,c1ccc(COc2ccc(OCCn3cncn3)cc2)cc1,inconclusive: 81.5%
2,CCn1cnc2cc(NCc3ccc(OC)cc3)ccc21,inactive: 57.5%
3,COc1ccc(-c2cn3nc(C)c(C)nc3n2)cc1OC,inconclusive: 89.4%
4,O=C(O)c1ccc(/C=C/c2ccc3cccc(O)c3n2)cc1,inconclusive: 83%
5,O=C(Nc1ccccc1)N1CCC(c2ccccc2)C1 (stereo not drawn),active: 106%
6,CCn1c(C)nc2cc(C(=O)NNC(=S)Nc3ccc(F)cc3)ccc21,inconclusive: 80.3%
7,CCOC(=O)c1sc2nc3c(cc2c1N)COC(C)(C)C3,inconclusive: 88%
8,Cc1ccc2nc(-c3ccc(SCC(=O)O)nc3)[nH]c2c1,inactive: -5.39%
9,Cc1onc(-c2ccccc2)c1C(=O)OCC(=O)c1ccccc1,inconclusive: 616%
10,COc1cccc(/C=C(\C(=O)O)c2ccccc2)c1,inactive: 10.3%
11,Cc1nc(N2CCN(C(=O)c3ccco3)CC2)nc2c1C(=O)CCC2,inactive: 41%
12,CN(C)c1nc2c(N)ncnc2n1C1OC(CO)C(O)C1O (stereo not drawn),inactive: 9.01%
13,CC(C)CC(COCc1cccc(C(F)(F)F)c1)N1CCN(C(=O)c2cccc(C(F)(F)F)c2)CCC1=O (stereo not drawn),inactive: -3.77%
14,CN(CC(=O)Nc1ccccc1Cl)C(=O)COC(=O)CN1C(=O)NC2(CCCC2)C1=O,inactive: -6.85%
15,O=C(CO/N=C/c1ccccc1OC(F)F)NC1CCCCC1,inactive: -0.322%
16,O=c1c2ccccc2nnn1Cc1ccc2ccccc2c1,inactive: 8.61%
17,CCOC(=O)c1cnc2cc(-c3ccc(Cl)cc3)nn2c1N,active: 149%
18,CC(C)(C)NCC(=O)N/N=C/c1ccc(OCc2ccccc2)cc1,active: 86.7%
19,Cc1ccc(-c2n[nH]c(Cc3ccccc3)n2)cc1,inconclusive: 83.8%
20,Nc1ccc2c(c1)Cc1cc([N+](=O)[O-])ccc1-2,inconclusive: 83.8%
21,CCOc1ccc2nc(NC(=O)CSCC(=O)Nc3cc(C)on3)sc2c1,active: 104%
22,CN(C(=O)COc1ncnc2ccccc12)C1CCCCC1,inactive: -2.14%
23,O=C(COC(=O)C12CC3CC(CC(O)(C3)C1)C2)Nc1ccc(Cl)cc1F,active: 93%
24,CCC(C)C(=O)N1CCCC(c2nc(-c3cccs3)no2)C1 (stereo not drawn),inconclusive: 122%
25,O=[N+]([O-])c1ccc(F)cc1OCc1nc(-c2cccs2)no1,inconclusive: 84.9%

row,Structure (SMILES),activation
1,O=S(=O)(Cc1cc(-c2ccc(Cl)cc2)no1)c1ccccc1,inconclusive: 83.9%
2,Cc1c(-c2nc(N)nc(Nc3ccccc3)n2)oc2ccccc12,inconclusive: 80.4%
3,O=C(CC1CCCC1)Nc1ccc(Br)cc1,inconclusive: 82.1%
4,CC(C)c1ccc(NC(=O)c2csnn2)cc1,active: 84.2%
5,COc1ccc(NC(=O)C2CCCN2S(=O)(=O)c2ccc3c(c2)CCC(=O)N3)cc1 (stereo not drawn),inactive: 0.403%
6,Cc1cc2oc(=O)c(CC(=O)NCCCO)c(C)c2c2occ(C(C)(C)C)c12,inactive: 26.5%
7,COc1ccc(CCNC(=O)/C=C\c2ccccc2)cc1OC,inactive: 8.4%
8,COc1ccc(OC)c(NC(=O)CS(=O)(=O)Cc2ccccc2)c1,inactive: -7.78%
9,O=C(COc1ccc(S(=O)(=O)N2CCCCC2)cc1)N1CCOCC1,inactive: 0.619%
10,C/C(=N\Nc1nc2ccccc2[nH]1)c1ccc(Cl)s1,inactive: 1.4%
11,COC(=O)C1C(=O)c2c([nH]c(C(=O)OCC3CCCO3)c2C)CC1C (stereo not drawn),inconclusive: 82.2%
12,Cc1ccc(NC(=O)CCSc2ccccn2)cc1,inconclusive: 85.9%
13,COc1cc(/C=C/c2nc3ccccc3c(=O)[nH]2)ccc1OC(F)F,inconclusive: 84.3%
14,O=C(CSCc1ccco1)N1CCc2ccccc21,inactive: 71.2%
15,O=C(Nc1ccccc1)c1ccn[nH]1,inconclusive: 84.1%
16,Cc1ccc(NC(=O)c2ccc3ccccc3n2)cc1S(=O)(=O)N(C)C,active: 119%
17,C=CCSc1n[nH]c(-c2ccc(OC)cc2)n1,active: 101%
18,CS(=O)(=O)N1CCN(c2ccc(NC(=O)c3ccc(Br)o3)cc2)CC1,inconclusive: 82.1%
19,Cc1ccc2[nH]c(=O)c(CN(Cc3ccco3)S(=O)(=O)c3c(C)ccc4nsnc34)cc2c1,inactive: -8.71%
20,CCOC(=O)C1=C(C)N=C2SCCC(=O)N2C1c1sccc1C (stereo not drawn),inactive: -1.66%
21,COc1ccc(-c2cc(-c3ccc(OC)cc3)[nH]n2)cc1,inconclusive: 91.8%
22,Clc1ccc(-c2csc(Nc3ccccc3)[n+]2Cc2ccco2)c(Cl)c1,active: 88.7%
23,NC(=O)C1CCN(C2=C(NS(=O)(=O)c3ccc(Cl)cc3)C(=O)c3ccccc3C2=O)CC1,inactive: -15.7%
24,O=C1CCCc2nc3c(cc21)C(O)Oc1c-3ccc2ccccc12 (stereo not drawn),inconclusive: 81.8%
25,COc1ccc(OC)c(NC(=O)COc2ccc(S(=O)(=O)NC(C)C)cc2)c1,inactive: 1.43%

row,Structure (SMILES),activation
1,Clc1ccccc1-c1nnc(-c2ccccc2Cl)o1,inconclusive: 85.4%
2,O=C(c1cnc(-c2ccccc2)s1)c1ccc(Cl)cc1Cl,inconclusive: 659%
3,S=C(c1ccc(-c2ccc(Cl)c(Cl)c2)o1)N1CCOCC1,active: 113%
4,CCOC(=O)c1ccc(Nc2cnc3ccccc3n2)cc1,inconclusive: 93.8%
5,CCCSc1ccc(C(=O)Nc2ccc(F)cc2F)cn1,inconclusive: 84.1%
6,COc1ccc(-c2cc(CS(=O)(=O)c3ccccc3)on2)cc1,inconclusive: 80.7%
7,CN1C(=O)CSc2ccc(NC(=O)Nc3ccccn3)cc21,active: 143%
8,O=C(/C=C/c1ccc2ccccc2c1)c1ccoc1,inconclusive: 82.8%
9,Nc1ccc(C(=O)N/N=C/c2ccccc2)cc1,active: 84.3%
10,CC(C)Nc1cc(C(C)(C)C)nc2c(-c3ccccc3)cnn12,inconclusive: 86%
11,Cc1cc(C)c(OCC(=O)Nc2cccc(O)c2)cc1C,inconclusive: 86.4%
12,Cc1ccc(NC(=O)c2ccc(OCC3CCCO3)cc2)nc1 (stereo not drawn),inconclusive: 83.1%
13,Cc1ccc(-c2nc3ncccn3c2Nc2ccccc2C)o1,inactive: 0.763%
14,CCc1cc2c(=O)c(-c3cnn(-c4ccccc4)c3)coc2c(CN2CCOCC2)c1O,inactive: 34.2%
15,O=C(O)c1ccccc1N/N=C/c1cc(Br)cc(Br)c1O,inconclusive: 92.5%
16,O=C(c1cc(COc2ccc(F)cc2F)on1)N1CC2C[C@@H]3CC1C[C@H](C2)C3,inconclusive: 80.3%
17,CCCOc1ccc(-c2nc(N3CCN(C)CC3)c3ccccc3n2)cc1,active: 125%
18,Cc1ccc(/C=C/C(=O)N2CCCC(C)C2)cc1 (stereo not drawn),active: 87.9%
19,Cc1cc(C)n(-c2ccc(C(=O)NC(C)C)cc2)n1,inactive: 6.43%
20,COc1ccc(/C=C/C(=O)c2ccc3c(c2)OCO3)c(OC)c1,inconclusive: 87.3%
21,CCNC(=O)N1c2ccc(OCC)cc2C(C)=CC1(C)C,inactive: 10.6%
22,CN(C(=O)c1ccco1)c1nc(-c2ccccc2)cs1,active: 130%
23,CCn1ccnc1CNC(=O)CC1C(=O)NCCN1Cc1ccc(OC)cc1OC (stereo not drawn),inactive: -4.61%
